Test results: the RNAGym collection of RNA variant scans (doi:10.7554/elife.90254)
Read counts are not given, so values of variants with three or more changes are uncertain.

B1: LINE1-full (parent)
chain: UACGUAGGUGGUUUUCCCCUGAUAGUGCUAAGGGGGCCUGGAAGUUUGGACUGGGCAGAGCUCAACACAGCGUGGCAAAGUGGCUGUGGCUAGACUGCCUCUCUGGAUUCCUCGUCACUCAGCAGGGCAUCUCUGAGAGAAAUGCC

Variants of: B1
Assay: self-cleavage, relative activity (ratio to wild type); higher = more cleavage; in vitro, sequencing; the parent is a self-cleaving ribozyme
With G33U U81A U91A the self-cleavage was 0.86.
Variant C38A U47A U108C has a self-cleavage of 0.77.
With U14A U20A U62C A77U A136G the self-cleavage was 0.48.
Work on G33A U81A G126U yielded a self-cleavage of 1.67.
Variant U14C A69G A142G has a self-cleavage of 0.24.
U104C G106U A124G showed a self-cleavage of 1.37.
In the case of A22G A57G A129G, the self-cleavage is reported as 2.3.
Work on U20C C71U A138G yielded a self-cleavage of 0.25.
For U13C A50G A69C, the self-cleavage was 0.
Variant C76U U104C C113U has a self-cleavage of 1.7.
Variant G58A C68U A78G has a self-cleavage of 0.02.
C3U U5C U13C U108C gave a self-cleavage of 0.94.
In the case of U20A A64U U96C U102C, the self-cleavage is reported as 0.
For U91C U109C A140G, the self-cleavage was 0.46.
U13C A65U U87C U96A A124U showed a self-cleavage of 0.
In the case of A124U A136C A142G, the self-cleavage is reported as 1.64.
A24G U52A A117G A129G showed a self-cleavage of 0.68.
Variant U26C C66U U87A has a self-cleavage of 0.
Variant A43U A77U C110U A136G has a self-cleavage of 1.22.
U14C U73C U104A gave a self-cleavage of 0.48.
U52C U73A A124G showed a self-cleavage of 2.04.
Variant U81A U112A A136G has a self-cleavage of 1.75.
U39A A42G A78G showed a self-cleavage of 1.31.
Work on G8C U100C A129G yielded a self-cleavage of 2.55.
Work on G11A A57G U85C U115G C120A A136C yielded a self-cleavage of 0.
Variant U26C U47G A78G A94U has a self-cleavage of 0.28.
Variant U52C G53U C116U has a self-cleavage of 1.02.
U15C A43G A50G showed a self-cleavage of 1.38.
For U15C U20A A78G A79G, the self-cleavage was 0.91.
With C3U U39C U52A C66U A79G the self-cleavage was 0.22.
Work on U9C U100C G125U yielded a self-cleavage of 1.87.
With G82A U96C U104A A117U the self-cleavage was 0.05.
A77C A107G U119A showed a self-cleavage of 1.02.
In the case of A124U A136G U143C, the self-cleavage is reported as 1.77.
U26A U39C A42U A67U A79G U87C G137A gave a self-cleavage of 0.
U26C U39C U52C A59U U87A A140G gave a self-cleavage of 0.24.
Variant A6G U12A A43U A65U A69G A107C has a self-cleavage of 0.
In the case of U15C U52A U73A G88A U96C U112C U132A, the self-cleavage is reported as 0.
Work on C19U U119C C133A yielded a self-cleavage of 0.77.
A43G A65G G126C showed a self-cleavage of 0.
U108C U109A C145G gave a self-cleavage of 1.38.
U13C A50G G53U A121G gave a self-cleavage of 1.31.
G25U U96A C111U U130A gave a self-cleavage of 0.06.
U12A U62C U96C U112A A142G gave a self-cleavage of 0.
Variant U52A G93A A107G A121G has a self-cleavage of 0.02.
U13C U14C A31G U104C gave a self-cleavage of 1.84.
In the case of U96C G97A U115C, the self-cleavage is reported as 0.
With A67U U96A U112C the self-cleavage was 0.03.
A43C U73C C113U gave a self-cleavage of 1.86.
With U9A A79G U85C the self-cleavage was 0.
Variant A30U U62C A121U has a self-cleavage of 0.04.
U9A A65G C98A showed a self-cleavage of 0.15.
For U14C U119A A136G, the self-cleavage was 1.49.
U39A U47C U52A G122A showed a self-cleavage of 1.59.
In the case of U13C U15A A69U U112A C128U, the self-cleavage is reported as 0.
With U14A G72A C90A the self-cleavage was 0.05.
With A30G A57U A138G the self-cleavage was 0.16.
A22G A24G A50U showed a self-cleavage of 1.97.
In the case of U1G A43G A142G, the self-cleavage is reported as 1.15.
For A24G A57G A59U U130C G139C, the self-cleavage was 1.5.
For U12G A79G U132C, the self-cleavage was 0.72.
U39A A42G U47C gave a self-cleavage of 1.61.
U45C U52C G89A C133U showed a self-cleavage of 0.
Work on U12A U13C U85C yielded a self-cleavage of 0.16.
In the case of A129U U130C U134C, the self-cleavage is reported as 1.03.
For U5A U81C A140G, the self-cleavage was 0.28.
Variant U112A A129U A141G has a self-cleavage of 1.68.
A30G A57G A117C gave a self-cleavage of 0.89.
A24C U62C A121U showed a self-cleavage of 0.04.
In the case of U12A C61U A69G A107U U115A, the self-cleavage is reported as 0.
In the case of A22U U104A U112A A136G, the self-cleavage is reported as 1.04.
G34U A129U U143C gave a self-cleavage of 1.58.
With U9A U100C U119C the self-cleavage was 1.48.
Variant A24U C71A U109A has a self-cleavage of 0.07.
In the case of U52A U100C A117G, the self-cleavage is reported as 2.07.
C3U A67U U104C U108C showed a self-cleavage of 0.53.
For G35A U100C U109G A124G, the self-cleavage was 1.2.
Work on U1C G8C A31U A59G A77G U112C yielded a self-cleavage of 0.
A42U A43G A121U U130C gave a self-cleavage of 1.7.
Variant A2U U12C U85C U119A has a self-cleavage of 0.36.
G35A A69U U112C A140G gave a self-cleavage of 0.03.
In the case of A77G G97U G144A, the self-cleavage is reported as 0.13.
A2G C19A U73G U108C U109C G126U showed a self-cleavage of 1.84.
U13A C28U U102C A140G gave a self-cleavage of 1.28.
Variant U29C U81A U119A has a self-cleavage of 2.11.
For U1C U12C U100C, the self-cleavage was 1.44.
U9C C17U U39C A121G gave a self-cleavage of 0.
Work on U26C A59G A142G yielded a self-cleavage of 0.1.
For A64G A69G A124U, the self-cleavage was 0.26.
C99U U115C A121G gave a self-cleavage of 0.95.
C17A G21A U52A U115C A129G showed a self-cleavage of 1.38.
U12G A59G C128U showed a self-cleavage of 0.34.
Work on A59U U119A A138G yielded a self-cleavage of 0.5.
With A22G U39C A140U the self-cleavage was 1.46.
U12C U109C U134C A142G gave a self-cleavage of 2.57.
Work on G10A U20C U46C U108C yielded a self-cleavage of 1.04.
For G35U A43G A121U U132C A142G, the self-cleavage was 1.09.
Variant C56G A57U U115C has a self-cleavage of 0.09.
With A42G A43U U45C A77G the self-cleavage was 2.51.
Variant A30U U73A A79G U143C has a self-cleavage of 0.43.
C56U G135A C145U gave a self-cleavage of 0.1.
For U13C C28G A64G, the self-cleavage was 0.35.
U29C A31G C56U A77G U115A A138G showed a self-cleavage of 0.48.
Variant A30C A50G U104A has a self-cleavage of 0.55.
Variant A6G U13C U46C U112A has a self-cleavage of 1.18.
U15C U20C U39C G126A gave a self-cleavage of 1.21.
U47A G58U A69U U130C gave a self-cleavage of 0.03.
U9A A69G G82A A140G gave a self-cleavage of 0.34.
For A6G A57G A117G, the self-cleavage was 0.
U14C G27C A67U A140G showed a self-cleavage of 0.13.
Work on A22G U39C G41A A79G yielded a self-cleavage of 0.46.
For U13C A65G A94U, the self-cleavage was 0.12.
For U23A U102A A141G, the self-cleavage was 1.39.
U9C U12C C66U gave a self-cleavage of 0.31.
With A22G A24G C103U U115G the self-cleavage was 1.17.
In the case of U26A A124G A142G, the self-cleavage is reported as 0.66.
For U14C A78G U96A A136U, the self-cleavage was 0.08.
G33C A92G A117U A129G gave a self-cleavage of 0.
With U14C A22G C90A the self-cleavage was 0.04.
In the case of U15C A77G U104A, the self-cleavage is reported as 2.17.
For U45C A92G G125A, the self-cleavage was 0.13.
A64G G88A A136G gave a self-cleavage of 0.02.
Work on U13C G34A A141G yielded a self-cleavage of 1.16.
Work on A2G U12A A30U A31G yielded a self-cleavage of 0.25.
U45C A65G U91A showed a self-cleavage of 0.
In the case of U26A A94U U112C, the self-cleavage is reported as 0.46.
A65G A67G A138G gave a self-cleavage of 0.
U15A A67U U108C U134C A140G gave a self-cleavage of 0.26.
For U15C A30U U109C A121C A142G, the self-cleavage was 1.23.
In the case of A22G U109C A117U A140U, the self-cleavage is reported as 1.1.
Work on U1C U20G U85C yielded a self-cleavage of 0.
For U9A U47C G86A U91C U104A, the self-cleavage was 0.07.
In the case of U26C U102C A129U, the self-cleavage is reported as 1.31.
With G32U U45C U62A A67G U115C U132C the self-cleavage was 0.
U46A U47G C128U gave a self-cleavage of 1.12.
U87A U109C C111U showed a self-cleavage of 0.08.
U12C A69U U109A showed a self-cleavage of 0.08.
A57U U96A A117C U132A gave a self-cleavage of 1.16.
Work on A6G U26C A43G A77U C131U yielded a self-cleavage of 0.
Variant G7A U9G U29A C110U has a self-cleavage of 1.02.
In the case of A69U U96C A117G A141G, the self-cleavage is reported as 0.13.
Variant C61U A69G A124G A138G has a self-cleavage of 0.07.
In the case of A59G U115C A129G, the self-cleavage is reported as 0.
Work on A6G G33U U112C A142G yielded a self-cleavage of 0.9.
In the case of A69G U100C A140G, the self-cleavage is reported as 0.77.
Variant U104A U109G U143A has a self-cleavage of 0.27.
U46C A65G U104C C123U A142G gave a self-cleavage of 0.15.
U9A U39C A78G U85C A107G gave a self-cleavage of 0.
U47A A94G U104C showed a self-cleavage of 0.08.
For C28U A107G A121U, the self-cleavage was 0.87.
With C84U A107G C133U U143C the self-cleavage was 0.17.
With U52C A67U U112C the self-cleavage was 0.1.
For G25A U85A C123U A136G, the self-cleavage was 0.13.
With C3U A117G U143C the self-cleavage was 1.15.
U5C A50G U85A U96C showed a self-cleavage of 0.
Work on U62C A107G G127A yielded a self-cleavage of 0.
In the case of U26G A107G A117U A124G, the self-cleavage is reported as 0.37.
Variant A59G G122A C133U has a self-cleavage of 0.1.
Work on U29C A30U U96A yielded a self-cleavage of 0.03.
Variant U12C U108C A124U U143C has a self-cleavage of 1.62.
Variant U20A A31G U46C A64G U87A U130A U143C has a self-cleavage of 0.
In the case of U23C U52C U85C, the self-cleavage is reported as 0.29.
For U45C A94G U132C A138U, the self-cleavage was 0.66.
In the case of G36A G126A A138G, the self-cleavage is reported as 1.15.
With U15C A65U U85C U96A the self-cleavage was 0.
Work on U9C U45A A50G G93A yielded a self-cleavage of 0.03.
Work on A22G A59G U87A yielded a self-cleavage of 0.06.
